This experiment concerns the target base coil K3 (three heptad repeats), YS2H bait fused to Aga2 with C-terminal FLAG tag (yeast).

base coil K3 (three heptad repeats), YS2H bait fused to Aga2 with C-terminal FLAG tag (yeast), sequence (chain, as listed by the source): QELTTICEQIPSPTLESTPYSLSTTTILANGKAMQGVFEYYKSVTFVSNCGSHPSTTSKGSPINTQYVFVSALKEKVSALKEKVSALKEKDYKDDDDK

B1: CeGFP-Myc (prey of the row 'K3' in Figure 2c, acid coil deleted) (protein)
secreted prey: DKQKNGIKVNFKIRHNIEDGSVQLADHYQQNTPIGDGPVLLPDNHYLSTQSALSKDPNEKRDHMVLLEFVTAAGITLGMDELYKEQKLISEEDL
Molecule B1 returned an MFI of complemented split eGFP, secretory pathway, control row 'K3' (K3-NeGFP-Flag : CeGFP-Myc, acid coil deleted); Flag MFI 129 of 8.

Source of the values: patent US20100075326A1.
